One test deals with T1, HA-GCM1 (human) (UniProt Q9NP62).
T1 sequence: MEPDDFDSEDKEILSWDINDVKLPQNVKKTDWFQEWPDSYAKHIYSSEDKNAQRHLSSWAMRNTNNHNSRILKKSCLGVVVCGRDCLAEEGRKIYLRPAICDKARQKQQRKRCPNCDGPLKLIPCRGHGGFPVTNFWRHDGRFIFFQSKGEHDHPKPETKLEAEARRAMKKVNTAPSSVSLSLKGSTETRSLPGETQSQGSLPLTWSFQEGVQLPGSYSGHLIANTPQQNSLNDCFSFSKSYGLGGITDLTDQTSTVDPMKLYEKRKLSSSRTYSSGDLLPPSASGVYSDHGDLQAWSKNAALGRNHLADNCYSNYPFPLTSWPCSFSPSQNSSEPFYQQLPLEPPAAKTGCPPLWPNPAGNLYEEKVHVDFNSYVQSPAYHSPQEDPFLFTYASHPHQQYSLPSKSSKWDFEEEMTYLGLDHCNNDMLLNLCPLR
Kind of test: co-IP; 293T cells cotransfected with the two expression plasmids (2.5 μg each), harvested 48 h after transfection in lysis buffer (50 mM Tris-HCl pH 8.0, 150 mM NaCl, 2 mM EDTA, 10% glycerol, 0.5% NP-40, 1 mM DTT); coimmunoprecipitation with FLAG and HA Abs (reciprocal in Fig. 3B, C).

Protein sequences, listed by entry. Tags and fused reporters are not part of them.
UniProt P23771: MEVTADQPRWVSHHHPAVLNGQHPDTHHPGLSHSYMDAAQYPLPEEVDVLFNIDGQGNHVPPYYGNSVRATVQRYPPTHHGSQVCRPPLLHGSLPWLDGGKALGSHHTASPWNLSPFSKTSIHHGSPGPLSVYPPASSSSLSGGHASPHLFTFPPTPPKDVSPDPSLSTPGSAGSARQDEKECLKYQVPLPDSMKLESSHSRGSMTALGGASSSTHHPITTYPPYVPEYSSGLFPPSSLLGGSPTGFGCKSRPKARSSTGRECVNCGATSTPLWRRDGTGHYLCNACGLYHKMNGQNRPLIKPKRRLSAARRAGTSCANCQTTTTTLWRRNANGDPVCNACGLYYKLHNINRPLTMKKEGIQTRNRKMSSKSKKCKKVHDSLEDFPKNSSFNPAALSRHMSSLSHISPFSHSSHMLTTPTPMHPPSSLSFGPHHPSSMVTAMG

For test [1], the target named is T2, endogenous GCM1 (human (endogenous in BeWo, JEG-3 and primary human trophoblast cells)) (UniProt Q9NP62).
T2 sequence: T1 sequence
Kind of test: co-IP; endogenous proteins in BeWo, JEG-3 and primary human trophoblast cells; rabbit anti-GCM1 Ab (or rabbit normal IgG) for immunoprecipitation, mouse anti-GATA3 Ab for immunoblotting. For orientation: A western blot detects proteins with antibodies after separation by electrophoresis.

For test [2], the target named is T3, Gal4-GCM1-FLAG, full-length GCM1 (human) (UniProt Q9NP62).
T3 sequence: T1 sequence
The test can be described thus: co-IP; 293T cells cotransfected with the two expression plasmids (2.5 μg each), harvested 48 h after transfection in lysis buffer (50 mM Tris-HCl pH 8.0, 150 mM NaCl, 2 mM EDTA, 10% glycerol, 0.5% NP-40, 1 mM DTT); coimmunoprecipitation with FLAG and HA Abs (reciprocal in Fig. 3B, C).

Test [3] deals with T4, Gal4-GCM1-FLAG, N-terminal domain (amino acids 1-167) of GCM1 (human) (UniProt Q9NP62).
T4 sequence: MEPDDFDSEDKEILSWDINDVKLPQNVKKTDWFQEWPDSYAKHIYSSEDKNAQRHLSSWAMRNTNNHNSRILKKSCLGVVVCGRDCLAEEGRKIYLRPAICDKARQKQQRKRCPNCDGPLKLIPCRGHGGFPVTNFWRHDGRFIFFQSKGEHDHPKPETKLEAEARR
The description is as above.

Test [4] has as its target T5, Gal4-GCM1-FLAG, amino acids 167-349 of GCM1 (TAD1) (human) (UniProt Q9NP62).
T5 sequence: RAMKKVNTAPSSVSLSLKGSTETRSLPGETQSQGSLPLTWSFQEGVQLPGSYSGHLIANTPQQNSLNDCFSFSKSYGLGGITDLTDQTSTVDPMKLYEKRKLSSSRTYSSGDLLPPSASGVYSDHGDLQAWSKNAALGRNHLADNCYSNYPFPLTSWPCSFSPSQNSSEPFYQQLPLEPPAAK
The test is described as above.

Another test has as its target T6, HA-tagged GCM2 (human) (UniProt O75603).
T6 sequence: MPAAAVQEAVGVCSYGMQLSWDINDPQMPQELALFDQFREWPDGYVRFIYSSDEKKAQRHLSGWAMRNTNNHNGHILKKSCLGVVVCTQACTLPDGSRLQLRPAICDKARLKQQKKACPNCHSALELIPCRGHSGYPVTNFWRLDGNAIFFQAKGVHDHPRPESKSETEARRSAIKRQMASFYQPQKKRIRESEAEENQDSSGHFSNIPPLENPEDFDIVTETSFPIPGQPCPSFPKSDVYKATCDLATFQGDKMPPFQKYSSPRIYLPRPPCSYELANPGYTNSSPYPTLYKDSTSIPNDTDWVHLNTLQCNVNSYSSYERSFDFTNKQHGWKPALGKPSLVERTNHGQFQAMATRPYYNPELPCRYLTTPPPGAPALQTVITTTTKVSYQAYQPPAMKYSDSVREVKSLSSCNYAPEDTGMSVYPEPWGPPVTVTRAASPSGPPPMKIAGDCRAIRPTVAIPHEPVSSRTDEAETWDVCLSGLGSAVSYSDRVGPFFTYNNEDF
The description is as above.

The next test has as its target GST-GCM1 (human) (UniProt Q9NP62). The test can be described thus: pull-down; about 45 ng immunopurified GATA3-FLAG incubated with 0.5 μg GST or 1.5 μg GST-GCM1 pre-bound to glutathione-conjugated agarose beads, lysis buffer, 4 °C, 3 h; immunoblot with FLAG Ab; both purified.

The record followed here is article PMC4761948.

These are yes or no findings as the source states them, for the method shown. For some assays here: In cells and extracts the contact can be indirect. Some binding calls cover weakened binding; strength is not graded here. For some assays here: Sequences can lack the tags named with a protein.

For the substance “Gal4-GATA3-FLAG, full-length GATA3 (from UniProt P23771 1-443)”, the binding result with HA-GCM1 (human) is recorded as “binds”.
On to “endogenous GATA3 (from UniProt P23771 1-443)”, for which the binding result in test [1] is “binds”.
As for HA-GATA3 (from UniProt P23771 1-443), the binding result in test [2], in test [3] and in test [4] was “binds” throughout.
Turning to GATA3-FLAG (from UniProt P23771 1-443), the values for the binding entry with HA-tagged GCM2 (human), in the test with HA-GCM1 (human) and with GST-GCM1 (human) were “no binding”, “binds” and “binds”, respectively.
